Where “and” joins values, the source holds several entries; their conditions need not be identical. Equal values may be shown once. In all, about 410,000 compounds went through this assay and about 5,000 (1.2%) were called active. Inconclusive results, whose numbers are uncertain, are shown with a selection of clear calls. Calls follow the shape of the dose curve; as a rule, active = well fitted inhibition curve with a large enough effect; inconclusive = small, poorly fitted or top-dose-only effect; inactive = no such curve, though single readings can be large or run the other way. Potencies of inconclusive entries are doubtful fits and often do not repeat.
Assay: qHTS for Inhibitors of TGF-b; also: nearly all actives have a fitted effect of over 65% in size
Details: HepG2 CAGA-GFP TGF-b/SMAD3 reporter, GFP fluorescence, 18 h, TGF-beta stimulated, 500 pg/mL final; series mostly up to 46.1 µM; activity, negative = inhibition: at the top concentration
How it was run: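 Smad-responsive CAGA-GFP expression was quantified in HEPG2 cells exposed to compounds and 500 pg/mL final TGF-beta for 18 h at 37 degrees C; unstimulated wells defined full inhibition.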
% is scaled to controls: 0 for no effect and ±100 for the full control effect; potency is read from the fitted curve at half-maximal effect; tags tell the direction and shape of the fitted curve.

SMILES	Potency	activity, negative = inhibition
CCOC(=O)Cc1csc(NC(=O)CSc2ncnc3c2cnn3-c2ccccc2Cl)n1	inconclusive: 8.91 µM [inhibitor, partial curve, poor fit]	
COc1ccc(-n2cnc3cc(NCc4ccco4)ccc32)cc1	inconclusive: 7.94 µM [inhibitor, partial curve]	
Nc1cccc2cccc([N+](=O)[O-])c12		inactive: -2.86%
CNCc1c(OCc2ccc(F)cc2)ccc2ccccc12		inactive: -4.18%
COc1ccc(Cl)cc1NC(=O)C1CCN(C(=O)C2CC(=O)N(c3ccc(C)cc3)C2)CC1 (stereo not drawn)	inconclusive: 7.94 µM [inhibitor, partial curve, poor fit]	
COc1cc(NCCCCC(C)N)c2nccc(C)c2c1 (stereo not drawn)	inconclusive: 12.6 µM [inhibitor, partial curve, poor fit]	
COc1ccc(OCC(=O)Nc2ccccc2OC)cc1		inactive: -4.54%
O=C(Nc1ccon1)c1cccc(C(F)(F)F)c1	inconclusive: 35.5 µM [inhibitor, single point]	
Cc1ccc(NS(=O)(=O)c2ccc3oc(=O)ccc3c2)cc1Cl	inconclusive: 12.6 µM [inhibitor, single point]	
Cc1nnc(NC(=O)CSCc2cc(=O)c3ccccc3[nH]2)s1		inactive: -3.2%
CCOC(=O)c1c(N2C(=O)C3C4C=CC(O4)C3C2=O)sc2c1CCCC2 (stereo not drawn)		inactive: 5.3%
C[C@@]12C(=O)Nc3cc(F)c(F)cc3C(=O)N1[C@H]1c3ccccc3OC[C@@H]1[C@@H]2c1ccccc1	inconclusive: 35.5 µM [inhibitor, single point]	
CCCCN(CCCNC(=O)c1ccc2c(c1)NC(=O)CN2C)c1ccccc1	inconclusive: 31.6 µM [inhibitor, single point]	
Cc1ccc(-c2cn3c(n2)sc2cc(C(=O)NCCC4=CCCCC4)ccc23)cc1	inconclusive: 6.31 µM [inhibitor, single point]	
CC(OC(=O)CCNS(=O)(=O)c1ccccc1)C(=O)Nc1ccc(S(=O)(=O)N2CCCCC2)cc1 (stereo not drawn)	inconclusive: 14.1 µM [inhibitor, single point]	
COc1ccc(S(=O)(=O)N(C)C[C@H]2Oc3ccc(NC(=O)Nc4ccc5c(c4)OCO5)cc3CC(=O)N([C@@H](C)CO)C[C@@H]2C)cc1	inconclusive: 22.4 µM [inhibitor, single point]	
Cc1ccc(C(=O)CSc2nn3c(=O)c(C(C)(C)C)nnc3s2)cc1	inconclusive: 35.5 µM [inhibitor, single point]	
COc1ccccc1NS(=O)(=O)c1cc(NC(=O)c2cc(=O)[nH]c3ccccc23)ccc1N1CCOCC1	inconclusive: 22.4 µM [inhibitor, single point]	
CC1CCN(S(=O)(=O)c2nnc(NC(=O)c3cccc(Cl)c3)s2)CC1	inconclusive: 7.94 µM [inhibitor, partial curve] and inconclusive: 17.8 µM [inhibitor, single point]	
COc1ccc(CNC(=O)COC(=O)CCOc2ccc(C)cc2)cc1	inconclusive: 35.5 µM [inhibitor, single point]	
CCOc1ccc(-c2nnc3ccc(SCc4ccc(C(=O)OC)o4)nn23)cc1		inactive: -5.26%

SMILES	Potency	activity, negative = inhibition
Cc1ccc(C)c(NC(=S)NC(NC(=O)/C=C/c2ccccc2)C(Cl)(Cl)Cl)c1 (stereo not drawn)	inconclusive: 15.8 µM [inhibitor, partial curve, poor fit]	
BrC(/C=N/Nc1nc(N2CCOCC2)nc(N2CCOCC2)n1)=C/c1ccccc1	inconclusive: 35.5 µM [inhibitor, single point]	
Cc1cccc(NS(=O)(=O)c2ccc(C)c(C(=O)NCC(c3ccco3)N3CCCCC3)c2)c1 (stereo not drawn)		inactive: 0%
O=C(Cc1ccc([N+](=O)[O-])cc1)N1N=C2CCCCC2C1(O)C(F)(F)F (stereo not drawn)		inactive: 4.27%
NC(=O)C1CCN(c2oc(-c3cccs3)nc2S(=O)(=O)c2ccc(Cl)cc2)CC1		inactive: -7.18%
CN1CCN(C(=S)NC(=O)c2ccco2)CC1		inactive: -19.3%
O=C(Cn1nnc(-c2ccccc2)n1)c1ccccc1	inconclusive: 2.82 µM [inhibitor, single point]	
O=C1N(Cc2cccc(Cl)c2)C[C@@H]2C[C@@H](c3cccc4ncccc34)N3CCC[C@@]123	inconclusive: 35.5 µM [inhibitor, single point]	
COc1ccc(Cl)cc1NC(=S)NCCC(c1ccccc1)c1ccccc1	inconclusive: 11.2 µM [inhibitor, partial curve, poor fit]	
O=C(O)c1ccc(N/N=C/C(Br)=C/c2ccccc2)cc1		inactive: -29.7%
O=C(CNC(=O)c1cc2c(s1)CCC2)Nc1ccccc1Br	inconclusive: 35.5 µM [inhibitor, single point]	
COc1ccccc1CNC(=O)CN1C(=O)COc2ccc(S(=O)(=O)NC3CCCC3)cc21	inconclusive: 35.5 µM [inhibitor, single point]	
CC(=O)C1CCC2C3CC=C4CC(SC(=N)N)CCC4(C)C3CCC12C (stereo not drawn)	inconclusive: 15.8 µM [inhibitor, single point]	
Cc1cccc(OCC(=O)Nc2cc(NC(=O)COc3cccc(C)c3)cc(C(=O)O)c2)c1	inconclusive: 10 µM [inhibitor, partial curve, poor fit]	
Cc1ccc(OCC(=O)N2CCCC(CO)(CCOc3ccccc3)C2)cc1 (stereo not drawn)	inconclusive: 35.5 µM [inhibitor, single point]	
CCNC(=S)/N=C(\N)Nc1nc(C)c2cc(C)ccc2n1	inconclusive: 3.16 µM [inhibitor, full curve, poor fit]	
C=CCN(CC=C)C(=O)c1cccc(S(=O)(=O)N2c3ccccc3CC2C)c1 (stereo not drawn)	inconclusive: 8.91 µM [inhibitor, partial curve, poor fit]	
Cc1ccc(NC(=O)C2OCCc3ccccc32)cc1Cl (stereo not drawn)		inactive: -5.34%
CN(C)C(=O)CSc1nnc(C23CC4CC(CC(C4)C2)C3)o1	inconclusive: 0.708 µM [inhibitor, full curve, poor fit]	
CC(=O)N1CCc2cc(S(=O)(=O)C(C)CC(=O)Nc3ccc(Br)c(C)c3)ccc21 (stereo not drawn)	inconclusive: 20 µM [inhibitor, single point]	
Cc1cc(F)ccc1-c1cc(C(=O)NCc2cccc(C(F)(F)F)c2)[nH]n1	inconclusive: 35.5 µM [inhibitor, single point]	

SMILES	Potency	activity, negative = inhibition
Cc1oc(C(=O)O)cc1CSc1nnc(-c2ccccc2)n1C	inconclusive: 2 µM [inhibitor, partial curve, poor fit]	
CCOC(=O)N1CCC(NC(=O)c2cnn3c(C(F)(F)F)cc(-c4cccc(OC)c4)nc23)CC1		inactive: -25.3%
COc1cc(S(=O)(=O)NCCc2c(C)[nH]c3ccccc23)c(C)cc1C	inconclusive: 22.4 µM [inhibitor, single point]	
COC(=O)C[C@H]1c2cc(F)ccc2S(=O)(=O)N1Cc1ccccc1OC	inconclusive: 12.6 µM [inhibitor, single point]	
O=C(N/N=C/c1cc([N+](=O)[O-])ccc1O)Nc1ccccc1		inactive: -7.28%
Nc1cccc2c1C(=O)N(C(=O)c1cccc(S(=O)(=O)N3CCCCCC3)c1)C2=O	inconclusive: 1.26 µM [inhibitor, partial curve]	
C/C(=N\NC(=S)Nc1ccccc1)C1Cc2ccccc2C(=O)O1 (stereo not drawn)	inconclusive: 31.6 µM [inhibitor, single point]	
c1ccc(CSc2ccc3nnc(-c4ccccn4)n3n2)cc1	inconclusive: 3.16 µM [inhibitor, single point]	
COc1ccc(NC(C)C(=O)Nc2ccc(C(C)(C)C)cc2)cc1Cl (stereo not drawn)	inconclusive: 35.5 µM [inhibitor, single point]	
Cc1ccc(S(=O)(=O)N[C@H](C(=O)OCC(=O)N2N=C(c3ccc(Cl)cc3)CC2c2ccco2)C(C)C)cc1 (stereo partly drawn)	inconclusive: 2 µM [inhibitor, full curve, poor fit]	
CCCCNC(=S)Nc1ccccc1Cc1ccccc1		inactive: -7.49%
CC1=C(C(=O)N2CCN(c3cccc(Cl)c3)CC2)C2(CCCCC2)OC1=O	inconclusive: 1.26 µM [inhibitor, partial curve]	
O=C(Nc1ccc2c(c1)CCCN2C(=O)c1cccs1)c1c(F)cccc1Cl		inactive: 2.82%
COc1ccccc1OCC(=O)NNc1c2ccccc2nc2ccccc12	inconclusive: 22.4 µM [inhibitor, single point]	
Cc1onc(-c2ccccc2Cl)c1C(=O)Nc1nnc(Cc2ccc(Cl)cc2)s1	inconclusive: 35.5 µM [inhibitor, single point]	
CC1CCN(S(=O)(=O)c2ccc3c(ccc(=O)n3CC(=O)Nc3cccc(F)c3)c2)CC1	inconclusive: 12.6 µM [inhibitor, partial curve, poor fit]	
OCC1(Cc2cccc(Cl)c2)CCCN(Cc2cn[nH]c2C2CCCCC2)C1 (stereo not drawn)	inconclusive: 22.4 µM [inhibitor, single point]	
Cc1ccc(NC(=O)CC2S/C(=N/N=C3\CCCc4ccccc43)NC2=O)cc1 (stereo not drawn)	inconclusive: 22.4 µM [inhibitor, single point]	
Cc1ccc(S(=O)(=O)N2CCCCC2)cc1NC(=O)C1=NN(c2ccccc2)C(=O)CC1	inconclusive: 12.6 µM [inhibitor, partial curve, poor fit]	
Cc1ccc(NC(=O)c2cc(S(=O)(=O)NCCc3ccc(Cl)cc3)ccc2F)cc1	inconclusive: 15.8 µM [inhibitor, single point]	
O=C(NCCc1nc2ccccc2n1CCCOc1ccc2ccccc2c1)C1CCCCC1		inactive: 3.75%

Reference: PubChem BioAssay AID588855 (National Center for Advancing Translational Sciences (NCATS), 2011)
